Hit rate of the full screen: of about 310,000 compounds, about 14,000 (4.5%) showed an effect of 50% or more. Effects have a minus sign here. The list shows a part of the results.
target: human ether-à-go-go-related gene (hERG) potassium channel (human, UniProt Q12809); test: primary screen, population patch clamp on CHO cells stably expressing hERG
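Also: peak tail current of the secondary pulse compared with the same well before compound.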

human ether-à-go-go-related gene (hERG) potassium channel, sequence (Q12809 whole entry, looked up): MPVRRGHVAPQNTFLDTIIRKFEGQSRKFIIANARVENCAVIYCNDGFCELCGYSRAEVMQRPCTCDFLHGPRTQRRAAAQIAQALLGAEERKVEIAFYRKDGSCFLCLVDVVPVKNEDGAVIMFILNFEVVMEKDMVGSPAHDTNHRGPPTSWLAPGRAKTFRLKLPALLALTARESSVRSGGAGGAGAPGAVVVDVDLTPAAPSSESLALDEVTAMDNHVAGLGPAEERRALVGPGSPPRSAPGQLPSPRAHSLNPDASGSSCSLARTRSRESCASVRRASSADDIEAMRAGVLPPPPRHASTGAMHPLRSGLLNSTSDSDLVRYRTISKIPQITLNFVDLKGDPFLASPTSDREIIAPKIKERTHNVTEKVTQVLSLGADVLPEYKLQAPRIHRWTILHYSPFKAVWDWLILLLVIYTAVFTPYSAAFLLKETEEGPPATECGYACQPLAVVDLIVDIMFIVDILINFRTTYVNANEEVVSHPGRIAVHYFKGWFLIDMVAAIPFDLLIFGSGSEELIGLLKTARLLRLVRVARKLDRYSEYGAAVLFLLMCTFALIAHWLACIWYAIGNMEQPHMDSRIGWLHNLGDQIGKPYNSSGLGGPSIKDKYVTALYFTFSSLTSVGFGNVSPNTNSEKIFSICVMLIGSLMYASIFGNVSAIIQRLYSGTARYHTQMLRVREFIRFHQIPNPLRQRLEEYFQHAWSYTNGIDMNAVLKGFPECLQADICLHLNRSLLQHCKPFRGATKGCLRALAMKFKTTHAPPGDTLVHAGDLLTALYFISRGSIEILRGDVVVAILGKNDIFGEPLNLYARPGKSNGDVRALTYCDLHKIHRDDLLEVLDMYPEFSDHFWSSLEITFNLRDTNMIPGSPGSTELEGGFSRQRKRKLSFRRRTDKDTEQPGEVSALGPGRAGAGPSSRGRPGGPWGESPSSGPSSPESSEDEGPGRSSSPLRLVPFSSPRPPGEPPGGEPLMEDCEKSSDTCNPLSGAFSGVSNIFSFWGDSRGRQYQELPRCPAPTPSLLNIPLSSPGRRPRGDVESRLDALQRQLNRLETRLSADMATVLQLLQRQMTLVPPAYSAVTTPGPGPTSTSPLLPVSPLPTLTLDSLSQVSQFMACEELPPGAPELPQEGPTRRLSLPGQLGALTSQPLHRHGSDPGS

SMILES	hERG current change (%, negative = inhibition) at 10uM
N#Cc1cnn2c1nc(N1CCOCC1)c1ccccc12	1.28%
Cc1cc(-c2[nH]nc3c2C(c2ccc(Cl)cc2)C(C#N)=C(N)O3)c(C)s1 (stereo not drawn)	7.96%
COCCn1c(Cc2ccccc2)nnc1SCc1ccc([N+](=O)[O-])cc1	-55%
CCc1ccccc1Nc1nc(N)nc(COC(=O)C2=COCCO2)n1	3.62%
COc1ccc(Sc2ccccc2CN(C)C)cc1OC.Cl	-5.59%
CCCNC(=O)c1ccccc1NC(=O)COc1cccc2c1OC(C)(C)C2	-11.6%
COc1cccc2cc(-c3cc(=O)oc4cc(C)c(OCC(C)=O)cc34)oc12	19%
Cc1nnc(NC(=O)CN2CC(C)OC(C)C2)s1 (stereo not drawn)	-5.06%
CCOC(=O)C1CCN(C(=O)c2ccc(N3CCCC3=O)cc2)CC1	5.05%
C=CCSc1n[nH]c2nc3c(c(=O)n12)C1(CCCC1)Cc1ccccc1-3	5.78%
S=c1[nH]nc(CSCCOc2ccc(Cl)cc2Cl)o1	13%
Cc1ccc2nc(C(=O)N3CCc4c([nH]c5ccccc45)C3c3ccccn3)cn2c1 (stereo not drawn)	-31.1%
CC(C)(C)c1ccc(C(=O)CCCSC2=C(C#N)C(c3ccco3)C3=C(CCCC3=O)N2)cc1 (stereo not drawn)	1.14%
CC(=O)NC1=NN(C(C)=O)C(C)(CS(=O)(=O)c2ccc3ccccc3c2)S1 (stereo not drawn)	-0.325%
CC(C)(C)n1nnc(CCc2nnn(C(C)(C)C)n2)n1	24.2%
CCCC(=O)Nc1ccc2c(c1)nc(CN1CCN(C(C)=O)CC1)n2C	-0.403%
CN(C)/C=N/C(=S)Nc1ccccc1	5.67%
Cc1ccc(NC(=O)CN2CCN(CCN=CC3=C(O)CC(c4ccccc4)CC3=O)CC2)cc1 (stereo not drawn)	-67.4%
CC1=NN(C(=S)Nc2ccccc2)C(C)(C)C1	14%
O=C(Nc1ccc(N2CCOCC2)nc1)c1ccccc1Cl	15.4%
Nc1[nH]n2c(=O)cc(-c3ccccc3)nc2c1N=Nc1ccccc1	11%
COc1ccc(S(=O)(=O)N2CCCC(C(=O)Nc3cccnc3)C2)cc1Cl (stereo not drawn)	-34.3%

SMILES	hERG current change (%, negative = inhibition) at 10uM
CCOc1cc(C(=O)Nc2c(C)ccc3nsnc23)cc(OCC)c1OCC	-7.05%
CC(=O)Nc1ccc(S(=O)(=O)NCC(CCC(=O)O)C(F)(F)F)cc1 (stereo not drawn)	16.8%
CCOC(=O)c1cccc(NC(=O)Nc2ccc3c(c2)C(=O)OC3)c1	11.9%
O=C(CN1CCN(S(=O)(=O)c2ccc(F)cc2)CC1)Nc1ccc2c(c1)OCCO2	-10.9%
Cc1ccc(N=C2NC(=O)/C(=C\c3cccs3)S2)cc1C	18.3%
O=C(O)CC(C(=O)Nc1ccc(F)cc1)C1CCCO1 (stereo not drawn)	4.85%
Cc1nnc(SCC(=O)c2c(N)n(Cc3ccccc3)c(=O)n(C)c2=O)n1C	-2.75%
COc1ccc(C(=O)OC2CC[C@@]3(C)C4CCC5[C@]6(O)CC(O)[C@@]7(O)C(CN8CC(C)CCC8[C@@]7(C)O)[C@]6(O)C[C@@]53O[C@]24O)cc1OC (stereo partly drawn)	12.9%
C/C(Cc1ccccc1)=N\NC(=O)CNC(=O)c1ccccc1F	8.09%
Cc1ccc(NC(=O)C2CCCN2C(=O)OC(C)(C)C)cc1C (stereo not drawn)	1.96%
CC(=O)N1CCc2cc(S(=O)(=O)NC(Cc3ccccc3)C(=O)Nc3cc(C)ccn3)ccc21 (stereo not drawn)	1.38%
Cn1c(SCC(=O)Nc2cccc3ccccc23)nc(O)cc1=O	4.89%
CN(C(=O)c1ccc2c(=O)n3c(nc2c1)CCCCC3)c1ccccc1Cl	-26.2%
Cc1ccc(NC(=O)CSc2ccccc2)cc1S(=O)(=O)N1CCCCC1	-0.653%
Cc1ccc2nc(C)c3c(c2c1)SCC3	-27.4%
CCN(CC)CCN1C(=O)C(O)=C(C(=O)c2cc3ccccc3o2)C1c1cccnc1 (stereo not drawn)	2.92%
CN(Cc1ccccc1)S(=O)(=O)CCNC(=O)c1ccc2c(c1)OCO2	11.4%
Cc1ccc(NC(=O)CCCn2c(=S)[nH]c3ccsc3c2=O)cc1C	17.1%
Cc1cc(=O)[nH]c(SCC(=O)Nc2ccc(F)cc2)c1C#N	15%
CN1CCN(C(=O)COc2ccc(S(=O)(=O)Nc3ccc(F)cc3)cc2)CC1	2.27%
CN(C)c1cccc2c1c(NC(=O)c1ccc(Cl)cc1)nn2C	-5.71%
c1ccc(CN2CCC(Nc3ncnc4sccc34)CC2)cc1	-66.9%

SMILES	hERG current change (%, negative = inhibition) at 10uM
OCCC1CN(CC2CC2)CCN1Cc1ccc(F)c(F)c1 (stereo not drawn)	-25.5%
Cl.O=C(OCCN1CCOCC1)c1cccs1	6.58%
O=C(/C=C/c1ccc(F)cc1)NC(=S)Nc1ccccc1O	-1.18%
Oc1c(Cl)cc(Cl)cc1CNc1nccs1	9.62%
COc1ccc(N=Nc2cc(-c3ccccc3)ccc2O)cc1	-7.23%
COc1ccc(-c2cc3nc(C4CCN(C(=O)OC(C)(C)C)CC4)c(C(=O)O)cn3n2)cc1	-5.52%
O=C(NCCCN1CCOCC1)C(Cl)(Cl)Cl	9.27%
CSc1cccc(NC(=S)N(CCN(C)C)C(C)c2ccccn2)c1 (stereo not drawn)	-36.2%
O=C(CSCc1c(Cl)cccc1Cl)NN=C1CCCC1	1.77%
Cc1ccc(-n2nc3c(c2NC(=O)c2ccc4c(c2)OCO4)CS(=O)C3)cc1 (stereo not drawn)	7.09%
COc1cccc2sc3ccc(NCc4ccc5c(c4)OCO5)cc3c(=O)c12	-0.817%
CN(CC(=O)Nc1ccc(N2CCOCC2)cc1)CC(=O)Nc1ccc([N+](=O)[O-])cc1Br	18.9%
COc1ccc(C)cc1NC(=O)/C=C/c1ccc(OC)c(S(=O)(=O)N2CCOCC2)c1	-15.7%
O=C(CN1C(=O)c2ccccc2S1(=O)=O)N1CCc2ccccc21	9.85%
CCCCOC(=O)c1ccc(NC(=O)C(=O)NCCN(CC)CC)cc1	-73.2%
CCn1c(CSc2nc(C)cc(C)n2)nnc1SCC(N)=O	22.4%
C/C(CCc1oc2c(Br)cc(Br)cc2c1-c1ccc(C)o1)=N\O	15%
Cc1cc(N2CCCC2=O)cc(C)c1S(=O)(=O)Nc1c(C)nn(C)c1C	22.7%
Cc1cc2oc(=O)cc(CSc3nc(N)cc(N)n3)c2cc1C	6.12%
CC(=NCc1ccc2c(c1)OCO2)c1c(O)n(-c2ccc(C)cc2)c(=O)[nH]c1=O	3.47%
CCOc1cc(C(=O)Nc2ccc(S(=O)(=O)Nc3nnc(CC)s3)cc2)cc(OCC)c1OCC	33.7%
CS(=O)(=O)Nc1cccc(C2=NN(S(=O)(=O)c3ccccc3)C(c3ccco3)C2)c1 (stereo not drawn)	-29.9%

SMILES	hERG current change (%, negative = inhibition) at 10uM
O=C(Nc1cccnc1)Nc1cccc([N+](=O)[O-])c1	-20.3%
O=C(Nc1ccc(F)cc1F)c1cccn(Cc2ccccc2)c1=O	13.1%
Cc1ccc(S(=O)(=O)N2CCN(CC(=O)N/N=C/c3ccco3)CC2)cc1	-33%
Cc1cccc(OCCCOc2cccc3cccnc23)c1C	10.4%
O=C(CSc1ncn[nH]1)Nc1ccc(S(=O)(=O)N2CCCC2)cc1	14.5%
O=C(O)CCCC(=O)N1CCc2cc(S(=O)(=O)NCc3ccccc3)ccc21	33.7%
Cc1cc(C)n2nc(C(=O)OCC(=O)N(C)CC(=O)Nc3ccccc3Cl)nc2n1	7.77%
CC1CCN(C(=O)CCCC(=O)N2CCC(C)CC2)CC1	-11.9%
CCOC(=O)CNC(=O)CSc1nnc(NC(=O)c2ccc3c(c2)OCO3)s1	3.8%
CC(C)CNC(=O)COC(=O)/C=C/c1ccco1	2.19%
COc1ccc(S(=O)(=O)N2CCN(c3ccc4nnc(-c5ccccc5)n4n3)CC2)cc1	-66.4%
O=C1c2ccccc2C(=O)N1/N=C/c1ccc(Oc2ccc([N+](=O)[O-])cn2)cc1	-23.7%
COc1ccc(-c2nn(-c3ccccc3)cc2/C=C(/C#N)C(N)=O)cc1[N+](=O)[O-]	-7.55%
Cc1ccc(C(=O)Oc2oc(-c3ccco3)nc2C=Nc2ccc(Cl)cc2)cc1	12.8%
CCOc1ccc(-c2nc(CSCC(=O)N3CCN(c4cccc(OC)c4)CC3)c(C)o2)cc1	-21.3%
N/C(=N\N=C\c1ccc2c(c1)OCO2)c1nonc1N	3.29%
CC(=O)Nc1ccc(N2C(=O)C3C4C=CC(CC4)C3C2=O)cc1 (stereo not drawn)	13.1%
O=C(NC1CCN(Cc2ccccc2)CC1)c1ccc(S(=O)(=O)NCc2ccco2)cc1	-12.3%
O=C1c2ccccc2C(=O)N1CC(O)COc1ccc(Br)cc1 (stereo not drawn)	-1.51%
CCOC(=O)C1(CCc2ccccc2)CCN(Cc2cccc3cnccc23)CC1	-69.6%
[Cl-].[NH3+][C@@H](Cc1ccccc1)C(=O)N1CCOCC1	16.1%

— publication PMC4336329 (PLoS ONE, 2015)
